{"source": "patent US20230338322A1", "about": "“GLYCERYLTRIACETATE (GTA) FOR USE IN IMPROVING BREATHING” (YISSUM RESEARCH DEVELOPMENT COMPANY OF THE HEBREW …, priority 2020, published 2023)", "experiment": "Treating lung cancer patient with breathing difficulties", "settings": "92 old male, NSCLC advanced stage; pure GTA in hard-shell Vegicaps, oral, 12 ml a day divided among 3 meals", "experimental": "A 92 old male diagnosed with lung cancer (NSCLC) at advanced stage, was suffering from shortness of breath, they looked pale and could not walk more than ˜50 m without stopping for a rest. […] The patient started taking pure glyceryl-triacetate (GTA), encapsulated in hard-shell Vegicaps (produced by Capsugel), 12 ml a day, divided among 3 meals. After 3 days the patient increased the dose to 24 ml a day and after additional 3 days they consumed a daily dose of 30 ml GTA for a period of 1 month.", "data": [{"compound": "CC(=O)OCC(COC(C)=O)OC(C)=O", "note": "[GTA, Glyceryltriacetate]", "values": [{"measurement": "time until patient reported feeling much better and easier breathing", "value": "≤ 2", "unit": "days"}]}]}
